{"source": "PubChem BioAssay AID651820", "about": "(National Center for Advancing Translational Sciences (NCATS), 2012)", "note": "The whole screen tested about 340,000 compounds, of which about 12,000 (3.5%) were called active. Inconclusive results, whose numbers are uncertain, are shown with a selection of clear calls. Calls follow the shape of the dose curve; as a rule, active = well fitted inhibition curve with a large enough effect; inconclusive = small, poorly fitted or top-dose-only effect, or another doubt; inactive = no such curve, though single readings can be large or run the other way. Potencies of inconclusive entries are left out as doubtful fits. Potency is read from the fitted curve at half-maximal effect; tags tell the direction and shape of the fitted curve."}
{"experiment": "qHTS Assay for Inhibitors of Hepatitis C Virus (HCV)", "conditions": "Huh7.5.1 HCVcc-Cre (HCVcc is cell-culture hepatitis C virus) infection, luciferase reporter, 44 h; series mostly up to 41.8 µM", "how_it_was_run": "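After 44 h co-culture of compound, cells and HCVcc-Cre (~0.5 moi), substrate is added for 15 min at room temperature and luciferase measured over 15 sec. Cells were seeded at 1,000/well and pre-cultured 4 h.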"}
{"compound": "N/C(=N\\NC(=O)c1cccc(F)c1)c1cc2ccccc2oc1=O", "Potency": "inactive"}
{"compound": "CCOc1ccc(C(=O)OCC(=O)Nc2cccc(S(=O)(=O)N3CCCC3)c2)cc1", "Potency": "inconclusive [inhibitor, single point]"}
{"compound": "Cc1ccc(-c2nnc(OCc3nc4ccccc4n3C)c3ccccc23)cc1", "Potency": "inactive"}
{"compound": "Cc1ccc(C(=O)COC(=O)C2C3C=CC(C3)C2C(=O)OCC(=O)c2ccc(C)c(C)c2)cc1C", "note": "(stereo unspecified)", "Potency": "inconclusive [inhibitor, single point]"}
{"compound": "Cc1ccc(Sc2cc(C)nc(-c3ccccn3)n2)cc1", "Potency": "inconclusive [inhibitor, single point]"}
{"compound": "O=C(NCc1ccc(Cl)cc1)C(=O)c1cn(CC(=O)N2CCOCC2)c2ccccc12", "Potency": "inactive"}
{"compound": "O=C(Cc1ccccc1)c1ccc2c(c1)OCCO2", "Potency": "inconclusive [inhibitor, partial curve]"}
{"compound": "CCn1c(COc2c(C)cccc2C)nnc1SCc1nc2ccccc2c(=O)[nH]1", "Potency": "inconclusive [inhibitor, single point]"}
{"compound": "Cc1ccc(C(=O)NNC(=O)c2ccc(C)cc2)cc1", "Potency": "inactive"}
{"compound": "Cc1ccc(S(=O)(=O)Nc2ccc(NC(=O)c3cccs3)cc2)cc1", "Potency": "inconclusive [inhibitor, single point]"}
{"compound": "Clc1nc(-c2ccccc2)ncc1Oc1ccccc1", "Potency": "inconclusive [inhibitor, single point]"}
{"compound": "Cc1ccccc1Cn1c2ccccc2c2cnn(CC(=O)NCCCN3CCN(C)CC3)c(=O)c21", "Potency": "inconclusive [inhibitor, single point]"}
{"compound": "CN(C)C(=O)Oc1ccnc2cc(Cl)ccc12", "Potency": "inactive"}
{"compound": "Cc1ccc(S(=O)(=O)N(C)c2ccc(C(=O)NCc3ccccc3F)cc2)cc1", "Potency": "inconclusive [inhibitor, single point]"}
{"compound": "O=C(N/N=C/c1ccc(Br)s1)c1ccc([N+](=O)[O-])cc1", "Potency": "inconclusive [inhibitor, full curve]"}
{"compound": "COc1ccc([N+](=O)[O-])cc1NC(=O)C(C)OC(=O)c1ccccn1", "note": "(stereo unspecified)", "Potency": "inactive"}
{"compound": "CC1(C)CC(NC(=O)COc2ccc(Br)cc2Cl)CC(C)(C)N1", "Potency": "active: 25.1 µM"}
{"compound": "CN(C)c1ccc(N=c2sc3ccccc3n2C)cc1", "Potency": "inactive"}
{"compound": "CCN(CC)S(=O)(=O)c1cc(NC(=O)C(C)N(C)CC(=O)Nc2c(C)cccc2C)ccc1C", "note": "(stereo unspecified)", "Potency": "inconclusive [inhibitor, single point]"}
{"compound": "CCOC(=O)/C(C#N)=C\\c1ccc(OCC(=O)Nc2ccc(C)cc2C)c(OC)c1", "Potency": "inactive"}
{"compound": "COc1ccc(C(=O)O)cc1S(=O)(=O)Nc1ccc(C)cc1", "Potency": "inactive"}
